Data: PubChem BioAssay AID2675 (National Center for Advancing Translational Sciences (NCATS), 2010)
Out of some 280,000 compounds screened, about 100 (0.036%) were called active. The inconclusive results got no clear call from the source; some entries with a clear call stand among them for comparison. Calls follow the shape of the dose curve; as a rule, active = well fitted inhibition curve with a large enough effect in the signal ratio, with a control signal flat (not every such curve was filed as active); inconclusive = small, poorly fitted or top-dose-only effect, or effect the other way, or a change in a side signal; inactive = no such curve, though single readings can be large or run the other way; the % refers to the signal ratio. Where the call is inconclusive, the potency comes from a doubtful curve fit. A note “side channel” means that the fit belongs to a control or component signal, not to the main read-out.

What follows are compounds tested against Muscleblind-like protein 1 (Homo sapiens) (UniProt Q9NR56) (assay: qHTS Assay for Inhibitors of MBNL1-poly(CUG) RNA binding). Conditions: TR-FRET MBNL1-His/biotin-(CUG)12 binding, 665/545 ratio; series mostly up to 57.5 µM.
Sequence of UniProt Q9NR56 (Q9NR56 whole entry, looked up): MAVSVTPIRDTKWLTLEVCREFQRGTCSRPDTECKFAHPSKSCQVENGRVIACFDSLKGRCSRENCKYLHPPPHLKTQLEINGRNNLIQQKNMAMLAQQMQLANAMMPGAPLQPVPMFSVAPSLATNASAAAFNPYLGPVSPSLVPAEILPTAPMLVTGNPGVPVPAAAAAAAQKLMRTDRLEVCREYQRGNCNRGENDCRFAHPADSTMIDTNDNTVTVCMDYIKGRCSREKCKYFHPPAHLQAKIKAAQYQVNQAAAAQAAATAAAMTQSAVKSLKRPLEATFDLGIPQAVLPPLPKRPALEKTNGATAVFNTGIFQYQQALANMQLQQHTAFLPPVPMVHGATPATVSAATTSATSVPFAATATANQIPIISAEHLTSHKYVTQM
Outline: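 MBNL1-His + Biotin-(CUG)12, cpd titration 92 nM–58 uM; Tb anti-His Ab 0.055 ng/ul, SA-XL665 5 nM (final); 60 min RT; ratiometric 665/545 nm, Ex 340 nm; normalized to buffer and full-complex controls.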
Potency is read from the fitted curve at half-maximal effect; tags tell the direction and shape of the fitted curve or compound fluorescence and quenching.

Row | Structure (SMILES) | Potency
1 | CC(=O)NCc1ccc(-c2csc(N)n2)s1 | inconclusive: 10 µM [quencher, side channel, partial curve]
2 | O=C(NCCC1=CCCCC1)C1CCC(CNS(=O)(=O)c2ccccc2)CC1 (stereo not drawn) | inconclusive: 0.126 µM [inhibitor, full curve, poor fit]
3 | Cn1c(SCC(=O)N/N=C/c2ccc([N+](=O)[O-])s2)nnc1-c1ccc(Cl)cc1 | inconclusive: 28.2 µM [quencher, side channel, partial curve]
4 | OCCNCc1c(OCc2ccc(Cl)cc2)ccc2ccccc12 | inconclusive: 28.2 µM [quencher, side channel, partial curve]
5 | Cc1c(NCc2nc3ccccc3[nH]2)c(=O)n(-c2ccccc2)n1C | inconclusive: 22.4 µM [quencher, side channel, partial curve]
6 | Cc1ccc(/C=C2\SC(=S)N(NS(=O)(=O)c3ccc(C)cc3)C2=O)cc1 | inactive
7 | CC(=O)c1cccc(NC(=O)/C=C/c2ccc([N+](=O)[O-])s2)c1 | inconclusive: 28.2 µM [quencher, side channel, single point]
8 | COC(=O)C(C#N)c1nc2ccccc2nc1N1CCCC1 (stereo not drawn) | inconclusive: 28.2 µM [quencher, side channel, partial curve]
9 | O=[N+]([O-])c1cc(/C=N/O)ccc1Oc1cccc(Cl)c1 | inconclusive: 31.6 µM [quencher, side channel, single point]
10 | COc1ccc(OC)c(S(=O)(=O)N(C)CC(=O)N2CCN(c3ccc(F)cc3)CC2)c1 | inconclusive: 79.4 µM [inhibitor, single point]
11 | COc1ccc(/C=N/NC(=O)c2cccnc2)cc1CSc1ccccn1 | inconclusive: 28.2 µM [quencher, side channel, partial curve]
12 | CC(C)CNC(=S)Nc1ccccc1F | inconclusive: 6.31 µM [fluorescent, side channel, full curve, poor fit]
13 | O=C(NCCc1cccs1)C1CC(c2cccc([N+](=O)[O-])c2)=NO1 (stereo not drawn) | inconclusive: 7.08 µM [quencher, side channel, partial curve]
14 | S=C(NC1CCCCC1)N1CCOCCOCCN(C(=S)NC2CCCCC2)CCOCC1 | inactive
15 | O=C(O)c1cccc(-c2ccc(/C=N/NC(=O)C3COc4ccccc4O3)o2)c1 (stereo not drawn) | inconclusive: 28.2 µM [quencher, side channel, partial curve]
16 | O=S(=O)(O)c1ccc(N=Nc2ccccc2)cc1 | inconclusive: 10 µM [quencher, side channel, partial curve]
17 | COc1ccc(N=C2S/C(=C\c3ccc(OCC(=O)O)cc3)C(=O)N2CCc2c[nH]c3ccccc23)cc1 | inactive
18 | O=C(c1cnccn1)N1CCN(c2ccccc2F)CC1 | inconclusive: 0.316 µM [fluorescent, side channel, full curve]
19 | C/C(=N\N=C1/NC(=O)C(C)S1)c1ccc([N+](=O)[O-])cc1 (stereo not drawn) | inconclusive: 20 µM [quencher, side channel, partial curve]
20 | CCOc1cccc(NC(=O)/C(C#N)=C\c2cn(CC(=O)O)c3ccccc23)c1 | inconclusive: 11.2 µM [quencher, side channel, partial curve]

Row | Structure (SMILES) | Potency
21 | Cn1c2ccccc2c(=O)c2c(=O)n(C3CCCCC3)c(-c3ccco3)nc21 | inconclusive: 1.58 µM [fluorescent, side channel, partial curve]
22 | CC(C)OP(=O)(c1ccccc1)c1ccccc1 | inconclusive: 0.316 µM [fluorescent, side channel, partial curve]
23 | CCCCn1c(=O)[nH]c2nc3cc(N)ccc3nc2c1=O | inconclusive: 12.6 µM [quencher, side channel, partial curve]
24 | O=C(O)c1ccc2ncc(NC(=O)c3ccc(F)cc3)c(=O)n2c1 | inconclusive: 10 µM [quencher, side channel, partial curve]
25 | Cc1cc(C(=O)N/N=C/c2cccs2)n[nH]1 | inactive
26 | COCCn1c(=S)[nH]c2ccc(N(C)C)cc2c1=O | inconclusive: 14.1 µM [quencher, side channel, partial curve]
27 | Cc1ccc(C(c2nnnn2CCc2ccccc2)N2CCC(C)CC2)cc1 (stereo not drawn) | inconclusive: 0.398 µM [fluorescent, side channel, full curve, poor fit]
28 | CC(C)C(=O)N1CCN(c2ccc(NC(=O)c3ccc([N+](=O)[O-])o3)cc2Cl)CC1 | inconclusive: 4.47 µM [quencher, side channel, full curve]
29 | CN=C1C=C/C(=N/N=c2\ccn(O)cc2C)C=C1C | inconclusive: 10 µM [quencher, side channel, partial curve]
30 | COC(=O)c1ccc(COc2ccc(/C=C(\C#N)c3nc4ccccc4[nH]3)cc2OC)o1 | inconclusive: 3.55 µM [quencher, side channel, partial curve]
31 | O=C(c1nc2nc(-c3ccccc3)cc(C(F)(F)F)n2n1)N1CCCCC1 | inconclusive: 10 µM [quencher, side channel, partial curve]
32 | COCCNC(=O)/C(C#N)=C\c1ccc(CNS(=O)(=O)c2ccc(C)cc2)o1 | inconclusive: 15.8 µM [quencher, side channel, partial curve]
33 | CN(C)/C=N/c1ncc(C(=O)c2ccc(Cl)cc2Cl)s1 | inconclusive: 10 µM [quencher, side channel, partial curve]
34 | CCN1CCN(c2c(Cl)cccc2NC(=O)c2ccc([N+](=O)[O-])cc2)CC1 | inconclusive: 3.55 µM [quencher, side channel, full curve, poor fit]
35 | N#CC1=C(N)Oc2cc(O)ccc2C1c1ccncc1 (stereo not drawn) | inconclusive: 39.8 µM [quencher, side channel, single point]
36 | CC(=O)Cc1c(C(=O)O)c(C)nn1-c1ccccc1 | inconclusive: 22.4 µM [fluorescent, side channel, single point]
37 | CCOc1ccc(/C(O)=C2/C(=O)C(=O)N(CCOCCO)C2c2ccccc2)cc1 (stereo not drawn) | inactive
38 | O=c1nc(/C=C/c2cc([N+](=O)[O-])ccc2Cl)cc(C(F)(F)F)[nH]1 | inactive
39 | COc1ccc(C(=O)N/C(=C\c2ccco2)C(=O)NC2CCS(=O)(=O)C2)cc1 (stereo not drawn) | inconclusive: 39.8 µM [quencher, side channel, single point]
40 | Cc1cc2ccccn2c1C(=O)c1ccc(C#N)cc1 | inconclusive: 15.8 µM [quencher, side channel, partial curve]

Row | Structure (SMILES) | Potency
41 | CC(C)c1c(Cl)c(O)c(-c2ccccc2)c(=O)n1-c1ccc(F)cc1 | inconclusive: 20 µM [inhibitor, single point]
42 | O=C(/C=C/c1cccc(F)c1)N1CCN(c2ncccn2)CC1 | inconclusive: 20 µM [quencher, side channel, partial curve]
43 | Cn1c(Cn2c(=O)sc3ccccc32)nnc1SCC(=O)Nc1ccc(Cl)cc1 | inconclusive: 3.16 µM [fluorescent, side channel, partial curve]
44 | COc1ccc([N+](=O)[O-])cc1NC1CCCCC1 | inconclusive: 15.8 µM [quencher, side channel, partial curve]
45 | COc1cccc(CNc2cccc3cccnc23)c1O | inconclusive: 15.8 µM [quencher, side channel, partial curve]
46 | N#C/C(=C/c1ccc(CNS(=O)(=O)c2ccccc2)o1)C(N)=O | inconclusive: 15.8 µM [quencher, side channel, partial curve]
47 | Cc1cc(Sc2nnc(N)s2)c2ccccc2n1 | inactive
48 | COc1ccc(-n2c(CN3CCC(C(N)=O)CC3)nc3ccc([N+](=O)[O-])cc3c2=O)c(OC)c1 | inconclusive: 12.6 µM [quencher, partial curve]
49 | O=C1SCCC1NS(=O)(=O)c1ccc([N+](=O)[O-])cc1 (stereo not drawn) | inconclusive: 10 µM [quencher, side channel, partial curve]
50 | O=C1N/C(=N/O)S/C1=C/c1cccnc1 | inconclusive: 7.94 µM [quencher, side channel, partial curve]
51 | CN(C)c1ccc(Nc2nc(N)c([N+](=O)[O-])c(N3CCOCC3)n2)cc1 | inconclusive: 17.8 µM [quencher, side channel, partial curve]
52 | O=C(Oc1ccc(-c2nccc(-c3ccccn3)n2)cc1)c1cccc(C(F)(F)F)c1 | inactive
53 | COc1ccc(/C=C/C(=O)Nc2cccc(N3CCOCC3)c2)cc1OC | inconclusive: 20 µM [quencher, side channel, partial curve]
54 | COc1ccc(-n2c(CN3CCN(c4ccccn4)CC3)nc3ccc([N+](=O)[O-])cc3c2=O)c(OC)c1 | inconclusive: 15.8 µM [quencher, side channel, partial curve]
55 | COc1ccc(C2c3c(ccc4ccccc34)Oc3ncn4nc(-c5ccco5)nc4c32)cc1 (stereo not drawn) | inconclusive: 1.58 µM [fluorescent, side channel, partial curve]
56 | CCN1/C(=C/c2ccc3cc(C)ccc3[n+]2CC)Sc2cc(C)c(C)cc21 | inconclusive: 14.1 µM [quencher, side channel, partial curve]
57 | N#CCc1ccc(Oc2ncccn2)cc1 | inactive
58 | CC(=O)N1CCN(C(=S)c2ccc(N(C)C)cc2)CC1 | inactive
